Test results from paper PMC5038265 (Antimicrobial Agents and Chemotherapy, 2016).

How the values were obtained:
M. tuberculosis Erdman [1] = format: in vivo, BALB/c mouse; details: 3 weeks with weekend drug holidays
M. tuberculosis Erdman [2] = assay: Murine GKO (C57BL/6-Ifngtm1ts) model of acute TB; format: in vivo, C57BL/6 GKO IFN-γ mice
M. tuberculosis Erdman [3] = details: oral, 5 days a week for 4 weeks; Fig. 5C

With CCOc1cccc2c1B(O)OC2CN (centres unmarked) [Compound 1] the “reduction in CFU from mouse lungs” value (M. tuberculosis Erdman [1]; 100 mg/kg twice a day (BID)) was 0.4 log10.
For CCOc1cccc2c1B(O)O[C@@H]2CN [Compound 2], the “reduction in lung CFU compared to control mice” value (M. tuberculosis Erdman [2]; 200 mg/kg BID for 9 days, oral) was 2 log10 and the “reduction in spleen CFU compared to control mice” value (M. tuberculosis Erdman [2]; 200 mg/kg BID for 9 days, oral) was 1.5 log10.
With CCOc1ccc(Br)c2c1B(O)OC2CN (centres unmarked) [Compound 11] the “efficacy in GKO mouse model of acute TB” value (M. tuberculosis Erdman [2]; oral, daily, Fig. 5A and B) was “efficacy similar to that of isoniazid”.
In the case of CCOc1ccc(Br)c2c1B(O)O[C@@H]2CN [Compound 14], the “efficacy in BALB/c mouse model of chronic TB infection” value (M. tuberculosis Erdman [3]) is reported as “the most potent”.
NNC(=O)c1ccncc1 [Isoniazid, isoniazid, reference compound] was tested, and the “reduction in CFU from lungs” value (M. tuberculosis Erdman [2]; 25 mg/kg) was 2.8 log10 and the “reduction in CFU from spleen” value (M. tuberculosis Erdman [2]; 25 mg/kg) was 3.4 log10.
In the case of O=[N+]([O-])c1cn2c(n1)OC[C@@H](OCc1ccc(OC(F)(F)F)cc1)C2 [PA-824, pretomanid, reference compound], the “reduction in CFU from mouse lungs” value (M. tuberculosis Erdman [1]; 100 mg/kg once a day (QD)) is reported as 1.9 log10.

Like-named read-outs stand apart in the source and are kept apart here.
